In the supplement of paper PMC8728848:
Some of the results follow.

Key:
Assay in all cases: glycan array binding signal (z-score within array); higher = stronger binding
Conditions in all cases: glycan notation: IUPAC condensed, linker removed
[1] = biological target: Neu5Ac(a2-3)Gal(b1-4)GlcNAc(b1-3)Gal
Summary of the method: (§1)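 From the Consortium for Functional Glycomics database, 3228 arrays were curated, keeping only those whose protein sequence was available. Binding is given as a within-array Z-score averaged across arrays sharing a protein sequence and across linkers. Negative Z-scores can be read as non-binding.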

[2] = biological target: Neu5Ac(a2-3)Gal(b1-4)GlcNAc(b1-3)Gal(b1-3)GlcNAc
Summary of the method: as §1

[3] = biological target: Neu5Ac(a2-3)Gal(b1-4)GlcNAc(b1-3)Gal(b1-4)GlcNAc
Summary of the method: as §1

[4] = biological target: Neu5Ac(a2-3)Gal(b1-4)GlcNAc(b1-3)Gal(b1-4)GlcNAc(b1-2)Man(a1-3)[Neu5Ac(a2-3)Gal(b1-4)GlcNAc(b1-3)Gal(b1-4)GlcNAc(b1-2)Man(a1-6)]Man(b1-4)GlcNAc(b1-4)GlcNAc
Summary of the method: as §1

[5] = biological target: Neu5Ac(a2-3)Gal(b1-4)GlcNAc(b1-3)Gal(b1-4)GlcNAc(b1-3)Gal(b1-4)GlcNAc
Summary of the method: as §1

[6] = biological target: Neu5Ac(a2-3)Gal(b1-4)GlcNAc(b1-3)Gal(b1-4)GlcNAc(b1-3)Gal(b1-4)GlcNAc(b1-2)Man(a1-3)[Neu5Ac(a2-3)Gal(b1-4)GlcNAc(b1-3)Gal(b1-4)GlcNAc(b1-3)Gal(b1-4)GlcNAc(b1-2)Man(a1-6)]GalNAc
Summary of the method: as §1

[7] = biological target: Neu5Ac(a2-3)Gal(b1-4)GlcNAc(b1-3)Gal(b1-4)GlcNAc(b1-3)GalNAc
Summary of the method: as §1

[8] = biological target: Neu5Ac(a2-3)Gal(b1-4)GlcNAc(b1-3)Gal(b1-4)GlcNAc(b1-3)[Neu5Ac(a2-3)Gal(b1-4)GlcNAc(b1-3)Gal(b1-4)GlcNAc(b1-6)]GalNAc
Summary of the method: as §1

[9] = biological target: Neu5Ac(a2-3)Gal(b1-4)GlcNAc(b1-3)Gal(b1-4)GlcNAc(b1-6)[Gal(b1-3)]GalNAc
Summary of the method: as §1

[10] = biological target: Neu5Ac(a2-3)Gal(b1-4)GlcNAc(b1-3)Gal(b1-4)[Fuc(a1-3)]GlcNAc
Summary of the method: as §1

[11] = biological target: Neu5Ac(a2-3)Gal(b1-4)GlcNAc(b1-3)GalNAc
Summary of the method: as §1

[12] = biological target: Neu5Ac(a2-3)Gal(b1-4)GlcNAc(b1-3)[Neu5Ac(a2-3)Gal(b1-4)GlcNAc(b1-6)]GalNAc
Summary of the method: as §1

[13] = biological target: Neu5Ac(a2-3)Gal(b1-4)GlcNAc(b1-6)GalNAc
Summary of the method: as §1

[14] = biological target: Neu5Ac(a2-3)Gal(b1-4)GlcNAc(b1-6)[Gal(b1-3)]GalNAc
Summary of the method: as §1

[15] = biological target: Neu5Ac(a2-3)Gal(b1-4)GlcNAc(b1-6)[Neu5Ac(a2-3)Gal(b1-3)]GalNAc
Summary of the method: as §1

[16] = biological target: Neu5Ac(a2-3)Gal(b1-4)GlcNAc6S
Summary of the method: as §1

[17] = biological target: Neu5Ac(a2-3)Gal(b1-4)[Fuc(a1-3)]GlcNAc
Summary of the method: as §1

[18] = biological target: Neu5Ac(a2-3)Gal(b1-4)[Fuc(a1-3)]GlcNAc(b1-2)Man
Summary of the method: as §1

[19] = biological target: Neu5Ac(a2-3)Gal(b1-4)[Fuc(a1-3)]GlcNAc(b1-3)Gal
Summary of the method: as §1

[20] = biological target: Neu5Ac(a2-3)Gal(b1-4)[Fuc(a1-3)]GlcNAc(b1-3)Gal(b1-4)GlcNAc
Summary of the method: as §1

[21] = biological target: Neu5Ac(a2-3)Gal(b1-4)[Fuc(a1-3)]GlcNAc(b1-3)Gal(b1-4)[Fuc(a1-3)]GlcNAc(b1-3)Gal(b1-4)[Fuc(a1-3)]GlcNAc
Summary of the method: as §1

[22] = biological target: Neu5Ac(a2-3)Gal(b1-4)[Fuc(a1-3)]GlcNAc(b1-3)GalNAc
Summary of the method: as §1

[23] = biological target: Neu5Ac(a2-3)Gal(b1-4)[Fuc(a1-3)]GlcNAc(b1-6)[Gal(b1-3)]GalNAc
Summary of the method: as §1

[24] = biological target: Neu5Ac(a2-3)Gal(b1-4)[Fuc(a1-3)]GlcNAc(b1-6)[Neu5Ac(a2-3)Gal(b1-3)]GalNAc
Summary of the method: as §1

[25] = biological target: Neu5Ac(a2-3)Gal(b1-4)[Fuc(a1-3)]GlcNAc6S
Summary of the method: as §1

[26] = biological target: Neu5Ac(a2-3)Gal6S(b1-4)GlcNAc
Summary of the method: as §1

[27] = biological target: Neu5Ac(a2-3)Gal6S(b1-4)[Fuc(a1-3)]GlcNAc
Summary of the method: as §1

Neu5Ac(a2-3)GalNAc = biological target: Neu5Ac(a2-3)GalNAc
Summary of the method: as §1

[28] = biological target: Neu5Ac(a2-3)GalNAc(b1-4)GlcNAc
Summary of the method: as §1

[29] = biological target: Neu5Ac(a2-3)[GalNAc(b1-4)]Gal(b1-4)Glc
Summary of the method: as §1

[30] = biological target: Neu5Ac(a2-3)[GalNAc(b1-4)]Gal(b1-4)GlcNAc
Summary of the method: as §1

[31] = biological target: Neu5Ac(a2-3)[GalNAc(b1-4)]Gal(b1-4)GlcNAc(b1-3)GalNAc
Summary of the method: as §1

[32] = biological target: Neu5Ac(a2-3)[Neu5Ac(a2-6)]GalNAc
Summary of the method: as §1

Neu5Ac(a2-6)Gal = biological target: Neu5Ac(a2-6)Gal
Summary of the method: as §1

[33] = biological target: Neu5Ac(a2-6)Gal(b1-3)GlcNAc(b1-3)[Gal(b1-4)GlcNAc(b1-6)]Gal(b1-4)Glc
Summary of the method: as §1

Neu5Ac(a2-6)Gal(b1-4)Glc = biological target: Neu5Ac(a2-6)Gal(b1-4)Glc
Summary of the method: as §1

[34] = biological target: Neu5Ac(a2-6)Gal(b1-4)GlcNAc
Summary of the method: as §1

[35] = biological target: Neu5Ac(a2-6)Gal(b1-4)GlcNAc(b1-2)Man
Summary of the method: as §1

[36] = biological target: Neu5Ac(a2-6)Gal(b1-4)GlcNAc(b1-2)Man(a1-3)Man(b1-4)GlcNAc(b1-4)GlcNAc
Summary of the method: as §1

[37] = biological target: Neu5Ac(a2-6)Gal(b1-4)GlcNAc(b1-2)Man(a1-3)[Gal(b1-4)GlcNAc(b1-2)Man(a1-6)]Man(b1-4)GlcNAc(b1-4)GlcNAc
Summary of the method: as §1

[38] = biological target: Neu5Ac(a2-6)Gal(b1-4)GlcNAc(b1-2)Man(a1-3)[GlcNAc(b1-2)Man(a1-6)]Man(b1-4)GlcNAc(b1-4)GlcNAc
Summary of the method: as §1

[39] = biological target: Neu5Ac(a2-6)Gal(b1-4)GlcNAc(b1-2)Man(a1-3)[GlcNAc(b1-4)][Neu5Ac(a2-6)Gal(b1-4)GlcNAc(b1-2)Man(a1-6)]Man(b1-4)GlcNAc(b1-4)GlcNAc
Summary of the method: as §1

[40] = biological target: Neu5Ac(a2-6)Gal(b1-4)GlcNAc(b1-2)Man(a1-3)[Man(a1-6)]Man(b1-4)GlcNAc(b1-4)GlcNAc
Summary of the method: as §1

[41] = biological target: Neu5Ac(a2-6)Gal(b1-4)GlcNAc(b1-2)Man(a1-3)[Neu5Ac(a2-3)Gal(b1-4)GlcNAc(b1-2)Man(a1-6)]Man(b1-4)GlcNAc(b1-4)GlcNAc
Summary of the method: as §1

[42] = biological target: Neu5Ac(a2-6)Gal(b1-4)GlcNAc(b1-2)Man(a1-3)[Neu5Ac(a2-6)Gal(b1-4)GlcNAc(b1-2)Man(a1-6)]Man(b1-4)GlcNAc(b1-4)GlcNAc
Summary of the method: as §1

B1: ABA (Agaricus bisporus), Q00022 (protein)
chain: MTYTISIRVYQTTPKGFFRPVERTNWKYANGGTWDEVRGEYVLTMGGSGTSGSLRFVSSDTDESFVATFGVHNYKRWCDIVTNLTNEQTALVINQEYYGVPIRDQARENQLTSYNVANAKGRRFAIEYTVTEGDNLKANLIIG
**Q.** Which results are given for B1?
**A.** glycan array binding signal (z-score) [1]: -0.292; glycan array binding signal (z-score) [2]: -0.259; glycan array binding signal (z-score) [3]: -0.332; glycan array binding signal (z-score) [4]: 2.72; glycan array binding signal (z-score) [5]: -0.276; glycan array binding signal (z-score) [6]: 2.8; glycan array binding signal (z-score) [7]: -0.265; glycan array binding signal (z-score) [8]: 0; glycan array binding signal (z-score) [9]: 0.615; glycan array binding signal (z-score) [10]: -0.193; glycan array binding signal (z-score) [11]: -0.246; glycan array binding signal (z-score) [12]: -0.238; glycan array binding signal (z-score) [13]: -0.245; glycan array binding signal (z-score) [14]: 0.741; glycan array binding signal (z-score) [15]: -0.009; glycan array binding signal (z-score) [16]: -0.243; glycan array binding signal (z-score) [17]: -0.238; glycan array binding signal (z-score) [18]: -0.254; glycan array binding signal (z-score) [19]: -0.252; glycan array binding signal (z-score) [20]: -0.322; glycan array binding signal (z-score) [21]: -0.079; glycan array binding signal (z-score) [22]: -0.183; glycan array binding signal (z-score) [23]: -0.199; glycan array binding signal (z-score) [24]: -0.22; glycan array binding signal (z-score) [25]: -0.286; glycan array binding signal (z-score) [26]: -0.232; glycan array binding signal (z-score) [27]: -0.264; glycan array binding signal (z-score) (Neu5Ac(a2-3)GalNAc): -0.259; glycan array binding signal (z-score) [28]: -0.276; glycan array binding signal (z-score) [29]: -0.249; glycan array binding signal (z-score) [30]: -0.198; glycan array binding signal (z-score) [31]: 1.31; glycan array binding signal (z-score) [32]: -0.256; glycan array binding signal (z-score) (Neu5Ac(a2-6)Gal): -0.234; glycan array binding signal (z-score) [33]: -0.205; glycan array binding signal (z-score) (Neu5Ac(a2-6)Gal(b1-4)Glc): -0.228; glycan array binding signal (z-score) [34]: -0.208; glycan array binding signal (z-score) [35]: -0.097; glycan array binding signal (z-score) [36]: -0.228; glycan array binding signal (z-score) [37]: -0.223; glycan array binding signal (z-score) [38]: -0.037; glycan array binding signal (z-score) [39]: -0.291; glycan array binding signal (z-score) [40]: -0.24; glycan array binding signal (z-score) [41]: -0.256; glycan array binding signal (z-score) [42]: -0.211
